# Experimental data taken from the supplement of paper PMC10037445.
# Whole data set: some 2,900 compounds, median “IRF Lucia reporter activity, fold change vs agonist alone” near 0.9, cut for the highest 2% near 2.8. This is one part of the list.
# Assays:
# RAW-Dual [1] = experiment: IRF Lucia reporter activity, fold change vs agonist alone; higher = enhanced IRF activity; conditions: cytotoxicity flag (confluency mask): not cytotoxic, agonist: MPLA (TLR4) […]
# In short: (§1)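 Cytotoxic wells were those whose IncuCyte confluency was below 70% of agonist controls in both mask sets. The cells were RAW-Dual macrophages at 50,000 cells/well in DMEM on 384-well plates, dosed with 50 nL of library stock by pin tool, stimulated with a PRR agonist 1 h later, and kept at 37 °C, 5% CO2 for 20 hours. IRF and NF-κB reporter activity, as fold change over agonist-alone wells, came from supernatant read by QuantiLuc luminescence and QuantiBlue absorbance, respectively.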
# RAW-Dual [2] = experiment: IRF Lucia reporter activity, fold change vs agonist alone; cytotoxicity flag (confluency mask): not cytotoxic; higher = enhanced IRF activity
# In short: as §1
# RAW-Dual [3] = experiment: IRF Lucia reporter activity, fold change vs agonist alone; cytotoxicity flag (confluency mask): cytotoxic (confluency <70% of control); higher = enhanced IRF activity
# In short: as §1
# [4] = library stock concentration (final ~1000-fold dilution): 10 mM
# [5] = agonist: 3'3'-cGAMP (STING) 10 ug/mL
smiles,measurement,setting,value
NC(=O)c1ccccc1O,IRF Lucia reporter activity,RAW-Dual [1]; [4],0.979
N#Cc1cnc(Nc2cc(NCC3CNCCO3)c(C(F)(F)F)cn2)cn1 (stereo not drawn) (library stock concentration (final ~1000-fold dilution): 10 mM),IRF Lucia reporter activity,RAW-Dual [2]; [5],0.342
same,IRF Lucia reporter activity,RAW-Dual [2]; agonist: LPS (TLR4) 0.1 ug/mL,0.475
Cc1nc(NC(=O)N2CCCC2C(N)=O)sc1-c1ccnc(C(C)(C)C(F)(F)F)c1 (stereo not drawn) (library stock concentration (final ~1000-fold dilution): 10 mM),IRF Lucia reporter activity,RAW-Dual [2]; [5],0.229
same,IRF Lucia reporter activity,RAW-Dual [2]; agonist: LPS (TLR4) 0.1 ug/mL,0.491
Cc1nc(NC(=O)N2CCCC2C(N)=O)sc1-c1ccnc(C(C)(C)C(F)(F)F)c1 (stereo not drawn),IRF Lucia reporter activity,RAW-Dual [1]; [4],0.722
CC(C(=O)O)c1ccc(CC2CCCC2=O)cc1 (stereo not drawn),IRF Lucia reporter activity,RAW-Dual [1]; [4],1.12
CC(C(=O)O)c1ccc(CC2CCCC2=O)cc1 (stereo not drawn) (library stock concentration (final ~1000-fold dilution): 10 mM),IRF Lucia reporter activity,RAW-Dual [2]; [5],1.06
same,IRF Lucia reporter activity,RAW-Dual [2]; agonist: LPS (TLR4) 0.1 ug/mL,1.07
CC1c2cccc(O)c2C(=O)C2=C(O)C3(O)C(=O)C(C(N)=O)=C(O)C(N(C)C)C3C(O)C21.CC1c2cccc(O)c2C(=O)C2=C(O)C3(O)C(=O)C(C(N)=O)=C(O)C(N(C)C)C3C(O)C21.CCO.Cl.Cl.O (stereo not drawn),IRF Lucia reporter activity,RAW-Dual [1]; [4],1.03
CC1c2cccc(O)c2C(=O)C2=C(O)C3(O)C(=O)C(C(N)=O)=C(O)C(N(C)C)C3C(O)C21.CC1c2cccc(O)c2C(=O)C2=C(O)C3(O)C(=O)C(C(N)=O)=C(O)C(N(C)C)C3C(O)C21.CCO.Cl.Cl.O (stereo not drawn) (library stock concentration (final ~1000-fold dilution): 10 mM),IRF Lucia reporter activity,RAW-Dual [2]; [5],0.994
same,IRF Lucia reporter activity,RAW-Dual [2]; agonist: LPS (TLR4) 0.1 ug/mL,1.13
O=C(c1cc(Cc2n[nH]c(=O)c3ccccc23)ccc1F)N1CCN(C(=O)C2CC2)CC1,IRF Lucia reporter activity,RAW-Dual [1]; [4],1.31
O=C(c1cc(Cc2n[nH]c(=O)c3ccccc23)ccc1F)N1CCN(C(=O)C2CC2)CC1 (library stock concentration (final ~1000-fold dilution): 10 mM),IRF Lucia reporter activity,RAW-Dual [2]; [5],0.977
same,IRF Lucia reporter activity,RAW-Dual [2]; agonist: LPS (TLR4) 0.1 ug/mL,1.37
CCN(CC)CCNC(=O)c1cc(Cl)c(N)cc1OC.Cl,IRF Lucia reporter activity,RAW-Dual [1]; [4],1.1
CCN(CC)CCNC(=O)c1cc(Cl)c(N)cc1OC.Cl (library stock concentration (final ~1000-fold dilution): 10 mM),IRF Lucia reporter activity,RAW-Dual [2]; [5],1.02
same,IRF Lucia reporter activity,RAW-Dual [2]; agonist: LPS (TLR4) 0.1 ug/mL,0.788
Cl.O=S(=O)(c1cccc2cnccc12)N1CCCNCC1,IRF Lucia reporter activity,RAW-Dual [1]; [4],0.55
Cl.O=S(=O)(c1cccc2cnccc12)N1CCCNCC1 (library stock concentration (final ~1000-fold dilution): 10 mM),IRF Lucia reporter activity,RAW-Dual [2]; [5],0.811
same,IRF Lucia reporter activity,RAW-Dual [2]; agonist: LPS (TLR4) 0.1 ug/mL,0.515
O=C1c2ccccc2C(=O)C1c1ccccc1 (library stock concentration (final ~1000-fold dilution): 10 mM),IRF Lucia reporter activity,RAW-Dual [2]; [5],0.917
same,IRF Lucia reporter activity,RAW-Dual [2]; agonist: LPS (TLR4) 0.1 ug/mL,1.02
O=C1c2ccccc2C(=O)C1c1ccccc1,IRF Lucia reporter activity,RAW-Dual [1]; [4],0.972
Clc1ccc2c(c1)C(N1CCNCC1)=Nc1ccccc1O2 (library stock concentration (final ~1000-fold dilution): 2 mM),IRF Lucia reporter activity,RAW-Dual [2]; [5],0.919
same,IRF Lucia reporter activity,RAW-Dual [2]; agonist: LPS (TLR4) 0.1 ug/mL,1.1
Clc1ccc2c(c1)C(N1CCNCC1)=Nc1ccccc1O2,IRF Lucia reporter activity,RAW-Dual [1]; library stock concentration (final ~1000-fold dilution): 2 mM,1.25
O=C(O)CCc1nc(-c2ccccc2)c(-c2ccccc2)o1 (library stock concentration (final ~1000-fold dilution): 10 mM),IRF Lucia reporter activity,RAW-Dual [2]; [5],0.889
same,IRF Lucia reporter activity,RAW-Dual [2]; agonist: LPS (TLR4) 0.1 ug/mL,1.25
CC(=CC(=O)OCCCCCCCCC(=O)O)CC1OCC(CC2OC2C(C)C(C)O)C(O)C1O (stereo not drawn),IRF Lucia reporter activity,RAW-Dual [1]; [4],1
CC(=CC(=O)OCCCCCCCCC(=O)O)CC1OCC(CC2OC2C(C)C(C)O)C(O)C1O (stereo not drawn) (library stock concentration (final ~1000-fold dilution): 10 mM),IRF Lucia reporter activity,RAW-Dual [2]; [5],0.919
same,IRF Lucia reporter activity,RAW-Dual [2]; agonist: LPS (TLR4) 0.1 ug/mL,0.928
Cc1ccc(S(=O)(=O)C=CC#N)cc1 (library stock concentration (final ~1000-fold dilution): 10 mM),IRF Lucia reporter activity,RAW-Dual [3]; [5],0.0196
same,IRF Lucia reporter activity,RAW-Dual [3]; agonist: LPS (TLR4) 0.1 ug/mL,0.0186
CN1CCC(NC(=O)Nc2ccc(C#N)cc2)CC1c1nc2ccccc2[nH]1 (stereo not drawn),IRF Lucia reporter activity,RAW-Dual [1]; [4],0.958
CN1CCC(NC(=O)Nc2ccc(C#N)cc2)CC1c1nc2ccccc2[nH]1 (stereo not drawn) (library stock concentration (final ~1000-fold dilution): 10 mM),IRF Lucia reporter activity,RAW-Dual [2]; [5],0.792
same,IRF Lucia reporter activity,RAW-Dual [2]; agonist: LPS (TLR4) 0.1 ug/mL,0.74
C=C1C(CO)C(O)CC1n1cnc2c(=O)nc(N)[nH]c21 (stereo not drawn) (library stock concentration (final ~1000-fold dilution): 10 mM),IRF Lucia reporter activity,RAW-Dual [2]; [5],0.949
same,IRF Lucia reporter activity,RAW-Dual [2]; agonist: LPS (TLR4) 0.1 ug/mL,0.937
C=C1C(CO)C(O)CC1n1cnc2c(=O)nc(N)[nH]c21 (stereo not drawn),IRF Lucia reporter activity,RAW-Dual [1]; [4],1.01
CC1(C(=O)Nc2ccc(F)nc2)CCCN1c1nc(Nc2cc(C3CC3)[nH]n2)c2cccn2n1 (stereo not drawn),IRF Lucia reporter activity,RAW-Dual [1]; [4],0.238
CC1(C(=O)Nc2ccc(F)nc2)CCCN1c1nc(Nc2cc(C3CC3)[nH]n2)c2cccn2n1 (stereo not drawn) (library stock concentration (final ~1000-fold dilution): 10 mM),IRF Lucia reporter activity,RAW-Dual [2]; [5],0.263
same,IRF Lucia reporter activity,RAW-Dual [2]; agonist: LPS (TLR4) 0.1 ug/mL,0.365
